The list shows a part of the results.
These sequences were tested on PfAP2-HC AP2 domain (GST-tagged) (assay: gcPBM binding intensity (ln(normalized median fluorescence intensity)); higher = stronger DNA binding).
In short: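 GST-tagged P. falciparum DNA-binding domains produced in E. coli were incubated for 1 h on an Agilent 4 × 180k array of primer-extended double-stranded 36-bp intergenic genomic probes with negative controls. Binding intensity is the highest Masliner-normalised natural-log median intensity across replicate spots of either probe orientation, with bound protein detected by Alexa488 anti-GST antibody at 488 nm.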

Sequence | gcPBM binding intensity (ln)
TAAGTTATATGTACTACACACGTACACAAAATAAGA [CACACA_site9237] | 9.86
ATCCACAAATTAACAAGTACATATATATATATATAT [XGTACX_site1267] | 9.58
TTAAGAATCTATACTAGTACATATATGTATACAAGC [XGTACX_site8025] | 9.7
TGTAGAACAAAAAATTGTACATATTTGTAAAAAAAA [XGTACX_site3850] | 9.66
ATTGTGTTAATAAAATGTACATTTTCTCTACTTTAA [XGTACX_site1199] | 9.83
TATATATATATGTGTAGTACAACAAATATGAAAAAT [XGTACX_site4059] | 9.96
AATTTAATATAATGCACACATAAAAAAAAATTCAAA [CACACA_site2062] | 9.76
ATGAAAACCATGACGGGTACTCATTTATTATTTTAT [XGTACX_site6724] | 9.73
ATTTATTTGTTTATTTGTTTATTTGTTTATTTGTTT [CACACA_negctrl_site1386] | 9.9
ATCCATCTTTTAATTTGTACTTATTCTTTTTTCTTT [XGTACX_site5299] | 10
ATTAGTTTTATATATAGTACATATAATTTTGAAGGT [XGTACX_site7445] | 9.64
ATATATATATGTAATAGTACATATGATAGTTTGTCA [XGTACX_site1545] | 9.88
TATGATATATATAATACACACATATACATAAGATCT [CACACA_site1119] | 10
AATATATATATATTATCACACACTCACGTTTGACAA [CACACA_site8130] | 9.83
ATTATATCATATATATGTACACATATATAACATGAT [XGTACX_site7] | 9.62
TAAAAAAAACGAACAAGTACACATAAAAAAAAATTA [XGTACX_site5982] | 9.69
TTGTAATTTATTCAAACACACAATTTGGACCTTTTT [CACACA_site1063] | 9.66
TATTCATAATTTTAATGTACAAAATGGTTTGTAATA [XGTACX_site8493] | 9.43
AAAGATAAATTAAAAAGTACATATTTATTCAATGTA [XGTACX_site8543] | 9.6

Sequence | gcPBM binding intensity (ln)
CACTTTTTTTTTTACTGTACATATACAAATTAAAAA [XGTACX_site1565] | 9.5
TTTTATTTATCTTAATGTACACATTTATATATATAT [XGTACX_site8588] | 9.98
TATAATAATTAAAAGTGTACTAAATTTTTACATATA [XGTACX_site2523] | 9.6
TTAAATAAAAGGTTTAGTACTTAAAATAAGAAATGA [XGTACX_site6341] | 9.57
GTAAATATAAACTCAGCACACAAACATATATATGTC [CACACA_site9326] | 9.99
TTTTTTTTCAATGGTTGTACAAAGTAAAACAACAAA [XGTACX_site1582] | 9.36
TGGGTGTAGAACAATTGTACTTTGTAAAAATATAAG [XGTACX_site8464] | 9.68
TTTATACTATAATTATGTACTTATAAAAGGAATAAA [XGTACX_site8027] | 9.38
ATAAACACATCTATATGTACATATATATATATATAC [XGTACX_site347] | 10.1
ATGTAAATACATATATGTACACAAATATATATATAT [XGTACX_site3537] | 9.86
TATATAAATATACATTGTACTCAACATTTTCATTAA [XGTACX_site3690] | 9.62
TATATTAAATAAAAAGTGCATGTCTCATAAGATGGA [GTGCAC_site9520] | 9.74
TATAAATAAAGCAGTACACACATTTATTTTAGATAC [CACACA_site7566] | 10
ATAAAATGTTAAGGGTGTACTTTACACATCTCCTAT [XGTACX_site4699] | 9.71
ATAGGGAATTTATGCACACAGTTAAGGGGGAAAATT [CACACA_site5183] | 9.84
TATAAGATTATACAAAGTACATATAAATAATATATT [XGTACX_site1917] | 9.41
ATATATATATAAATATGTACATATATATATTATATA [XGTACX_site120] | 9.8
TTAAAAAAAGATTATACACACACATATATAAACATA [CACACA_site8136] | 10.6
TCCTCTTTTATTTTTACACACGCGTAAACATATATA [CACACA_site667] | 10

Sequence | gcPBM binding intensity (ln)
TGAAATAAAAAATATAGTACTCGTTCGTAACCAAAA [XGTACX_site413] | 9.71
ATGGGTTAAAAATGCACACAAAAAAATATACAGATA [CACACA_site4321] | 10
TGTATTAATAAAAATACACACATCATATTATAGAAA [CACACA_site7629] | 9.8
ATATATAAGGATGTCACACATAAATATTAACACTAA [CACACA_site5101] | 9.73
TTCAATTTTTTATGAACACACAAAAAAAAAAAAAAA [CACACA_site2533] | 9.23
ACATAATTAACAAATACACACACACCCACCCACAAA [CACACA_site8069] | 10.7
TTATATTATTTTTATACATGCATTTCTATATATTTT [TGCATGCA_site164] | 9.86
AAGAAAAAATATATATATATATATATATATAATATG [TGCATGCA_negctrl_site417] | 9.58
ATTTGTGATTTGTGTGTGCACGTATTTACAGAACAA [GTGCAC_site9498] | 10.1
ATATAAATTATTTACACACAAACATTTATACTTTTA [CACACA_site3448] | 9.86
TTTTGTTACGGCAAGGAAGTTAAGCATAAATGAATG [GTGCAC_negctrl_site173] | 9.45
CAGGCGTGAAATATACGTACACACATTATTTATATT [XGTACX_site5337] | 9.94
ATATATCTACTGTGTTGTACTGTTAATATTTGAATA [XGTACX_site1931] | 9.78
ATATAAGTGTATCTAACACACAAATATGTAAAAATG [CACACA_site7006] | 10.2
TATATACACATATATACACACACATATATATATATA [CACACA_site9127] | 10.2
ATATTTTTTGCTATTACACACAAGGGATTATTATTT [CACACA_site7776] | 9.92
AAGAAAAAAAATATATATGTATATATTATTTTAACA [TGCATGCA_negctrl_site534] | 9.54
TAATAATAGTCTAATACATGCATCGATAACGGAACT [TGCATGCA_site98] | 9.58
ATGTTAATAACTTGTGGTACTGTTATAATTTAGTAA [XGTACX_site2114] | 9.63
